Tested on: NCI-N87 tumor cell line
Experiment: In vitro proliferation (XTT) assay on NCI-N87 cells
Type: cell-based, human

B1: Fc-C12: clone C12 fused via (Gly4Ser)3 to the C-terminus of human Fcγ1, SEQ ID NO: 319 (protein)
chain: [sequence of human IgG1 Fc omitted]GGGGSGGGGSGGGGSGVTLFVALYDYTSYNTRDLSFHKGEKFQILRMEDGVWWEARSLTTGETGYIPSNYVAPVDSIQ
modifications: Fc fusion of Fynomer C12 (Fynomer #1; SEQ ID NO:1)
effect on cell viability / antiproliferative effect (NCI-N87, 5 days, 0.015-300 nM): did not have any effect on cell viability
effect on activity of anti-HER2 antibodies when added in combination (NCI-N87, in combination with anti-HER2 antibody 1 or anti-HER2 antibody 2): did not increase or decrease the activity of these two antibodies significantly

From patent publication US9989536B2, “Specific and high affinity binding proteins comprising modified SH3 domains of FYN kinase” (EIDGENOESSISCHE TECHNISCHE HOCHSCHULE ZURICH, priority 2006, dated 2018)
